Source: patent US20220281976A1 (Alector, published 2022)

T1: mouse CD33 Fc fusion protein (mouse, UniProt Q63994 18-240, limits assumed)
T1 construct: also called mCD33-Fc
T1 sequence: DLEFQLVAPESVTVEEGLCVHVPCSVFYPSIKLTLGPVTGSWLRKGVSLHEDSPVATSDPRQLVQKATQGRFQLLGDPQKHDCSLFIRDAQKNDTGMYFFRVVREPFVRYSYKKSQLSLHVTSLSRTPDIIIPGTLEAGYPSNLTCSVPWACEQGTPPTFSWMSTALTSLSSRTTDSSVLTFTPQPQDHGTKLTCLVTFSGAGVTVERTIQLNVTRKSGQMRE

B1: C-4 (antibody, V domains shown)
VH: [no letters for about 100 residues]QGEYARWYHGMDVWGQGTTVTVSS
VL: DIVMTQSPDSLAVSLGERATINCKSSQSVLYSSNNKNYLAWYQQKPGQPPKLLIYWASTRESGVPDRFSGSGSGTDFTLTISSLQAEDVAVYYCQQDFSDPITFGGGTKVEIK
notes: human IgG1
B2: C-78 (antibody, V domains shown)
VH: [no letters for about 100 residues]HGGSPMLYYYGMDVWGQGTTVTVSS
VL: B1 VL with S83R, Q85E, A86P, V89F, D97L, F98Y, S99R, D100S, I102P
notes: human IgG1
B3: C-93 (antibody, V domains shown)
VH: [no letters for about 100 residues]GGADRGYGMDVWGQGTTVTVSS
VL: B1 VL with D97H, F98Y, S99Y, D100H, I102P
notes: human IgG1
B4: C-2 (antibody, V domains shown)
VH: [no letters for about 100 residues]GPRQEYGGLDLWGRGTLVTVSS
VL: B1 VL with F98Y, S99L, D100S
notes: human IgG1
B5: C-94 (antibody, V domains shown)
VH: [no letters for about 100 residues]LGGSHASLDLWGRGTLVTVSS
VL: B1 VL with D97L, F98Y, I102P
notes: human IgG1

target: T2, human CD33 (human, UniProt P20138); assay: flow cytometry, human primary dendritic cells;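 note: binding of anti-CD33 antibodies (10 ug/ml, 1 h on ice) to human primary dendritic cells, detected with a PE-labelled secondary antibody, reported as flow cytometry MFI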
T2 construct: CD33 on human primary dendritic cells, macrophages, monocytes and T cells and on CHO cells expressing recombinant human CD33; also called Siglec-3; hCD33

| DC MFI | Binder |
| --- | --- |
| 699 | B1 |
| 45 | B2 |
| 62 | B3 |
| 601 | B4 |
| 46 | B5 |

target: T2, human CD33; assay: flow cytometry, human primary T cells;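 note: binding of anti-CD33 antibodies at 10 ug/ml to human primary T cells, 1 h on ice, detected with PE-labelled secondary antibody, read as flow cytometry MFI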
T2 sequence (P20138 18-364): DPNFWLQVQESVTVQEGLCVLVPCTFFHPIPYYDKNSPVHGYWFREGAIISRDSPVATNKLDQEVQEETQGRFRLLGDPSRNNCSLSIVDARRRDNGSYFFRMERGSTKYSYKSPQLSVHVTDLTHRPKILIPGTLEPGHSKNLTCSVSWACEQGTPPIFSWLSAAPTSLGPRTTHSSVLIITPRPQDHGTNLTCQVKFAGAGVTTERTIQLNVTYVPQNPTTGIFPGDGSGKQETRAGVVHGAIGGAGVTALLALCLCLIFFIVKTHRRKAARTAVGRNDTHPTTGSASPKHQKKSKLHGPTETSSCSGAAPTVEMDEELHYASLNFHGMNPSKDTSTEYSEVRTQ

| T cell MFI | Binder |
| --- | --- |
| 667 | B1 |
| 217 | B2 |
| 146 | B3 |
| 974 | B4 |
| 132 | B5 |

target: T3, human CD33 Fc fusion protein (human, UniProt P20138 18-259); assay: RBC adhesion to plate-bound CD33-Fc; antibody 1.0 ug/ml;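 note: red blood cells adhering to plate-coated CD33-Fc after 1 h antibody pretreatment, then 1 h at room temperature, bound cells read as peroxidase activity after lysis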
T3 construct: also called hCD33-Fc; human CD33/Fc chimera (R&D Systems)

| Percent RBC Binding to CD33 [%] | Binder |
| --- | --- |
| 89 | B1 |
| 83.6 | B2 |
| 100 | B3 |
| 90.4 | B4 |
| 94.2 | B5 |

target: T2, human CD33; assay: flow cytometry, human primary monocytes; set-up: reference not given here;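 note: binding of anti-CD33 antibodies at 10 ug/ml to human primary monocytes, 1 h on ice, detected by PE-labelled secondary antibody, flow cytometry readout as mean fluorescence intensity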

| Monocyte MFI | Binder |
| --- | --- |
| 98 | B1 |
| 711 | B2 |
| 730 | B3 |
| 119 | B4 |
| 585 | B5 |

target: T2, human CD33; assay: cell-based or functional assay

| Percent CD33 Surface Expression, DC % CD33 [%] | Percent CD33 Surface Expression, Macrophage % CD33 [%] | Percent CD33 Surface Expression, Monocyte % CD33 [%] | Binder |
| --- | --- | --- | --- |
| 91.8 | 96.1 | 93.9 | B1 |
| 67.5 | – | 95.4 | B2 |
| 92.5 | – | 82.7 | B3 |
| 102 | 105 | 96.3 | B4 |
| 89.5 | – | 82.9 | B5 |

target: T3, human CD33 Fc fusion protein; assay: RBC adhesion to plate-bound CD33-Fc; antibody 0.5 ug/ml;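 note: Plate-coated CD33-Fc preincubated 1 h with antibody, then red blood cells added for 1 h at room temperature, adherent cells lysed and quantified via peroxidase activity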
T3 sequence (P20138 18-259 limits assumed): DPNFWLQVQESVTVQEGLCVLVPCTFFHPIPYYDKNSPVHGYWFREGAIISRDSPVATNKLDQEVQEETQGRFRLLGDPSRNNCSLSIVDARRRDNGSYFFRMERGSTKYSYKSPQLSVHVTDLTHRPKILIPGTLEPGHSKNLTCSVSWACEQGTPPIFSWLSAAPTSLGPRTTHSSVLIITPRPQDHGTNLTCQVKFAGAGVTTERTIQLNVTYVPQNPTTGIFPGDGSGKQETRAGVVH

| Percent RBC Binding to CD33 [%] | Binder |
| --- | --- |
| 94.7 | B1 |
| 66.2 | B2 |
| 83.8 | B3 |
| 83.1 | B4 |
| 81.9 | B5 |

target: T4, human monomeric His tagged CD33 protein (human, UniProt P20138 18-259); assay: ForteBio BLI or MSD-SET, IgG, monomeric antigen;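 note: BLI: antibodies captured on AHQ sensors, 100 nM antigen association 5 min, dissociation 5 min, 1:1 fit. MSD-SET: antigen fixed at 50 pM, antibody titrated, quadratic fit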
T4 construct: also called hCD33-His

| Kd [nM] | Binder |
| --- | --- |
| 13.3 | B1 |
| 5.92 | B2 |
| 26.5 | B4 |

target: T3, human CD33 Fc fusion protein; assay: ForteBio BLI or MSD-SET, IgG, avid;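 note: Anti-CD33 IgG affinity by BLI, IgG captured on AHQ sensors with antigen in solution and a one-to-one kinetic fit, or by MSD solution equilibrium titration with quadratic fit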

| Kd [nM] | Binder |
| --- | --- |
| 2.52 | B1 |
| 0.913 | B2 |
| 19.5 | B3 |
| 4.39 | B4 |
| 17.5 | B5 |

target: T1, mouse CD33 Fc fusion protein; assay: ForteBio BLI or MSD-SET

| binding result | Binder |
| --- | --- |
| no binding (tested: 100 nM) | B1 |
| no binding (tested: 100 nM) | B2 |
| no binding (tested: 100 nM) | B3 |
| no binding (tested: 100 nM) | B4 |
| no binding (tested: 100 nM) | B5 |

target: T2, human CD33; assay: flow cytometry, human primary macrophages;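 note: binding of CD33 antibodies at 10 µg/ml to human primary macrophages, 1 h on ice, detected with PE-labelled secondary antibody by flow cytometry, reported as MFI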

| Macrophage MFI | Binder |
| --- | --- |
| 632 | B1 |
| 565 | B2 |
| 494 | B3 |
| 629 | B4 |
| 435 | B5 |

Positions count from the first letter of the chain named.
